Experimental findings from the BET-seq Pho4 binding data (Le et al. 2018) are described below.

The other results are listed elsewhere or left out. These are noisy estimates, calculated here from bound and input reads.

The target in the test is T1, Pho4 (S. cerevisiae) (UniProt P07270).
T1 sequence: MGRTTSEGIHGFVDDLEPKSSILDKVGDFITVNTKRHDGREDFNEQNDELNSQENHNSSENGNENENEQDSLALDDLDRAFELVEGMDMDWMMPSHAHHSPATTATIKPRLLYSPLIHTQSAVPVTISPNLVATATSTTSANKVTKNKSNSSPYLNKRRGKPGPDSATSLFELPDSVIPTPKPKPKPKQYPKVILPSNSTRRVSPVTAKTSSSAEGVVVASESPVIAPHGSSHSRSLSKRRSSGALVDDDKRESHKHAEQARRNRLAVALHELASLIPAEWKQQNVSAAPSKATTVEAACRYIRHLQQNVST
Put plainly: relative binding free energy (BET-seq); higher = weaker binding. The conditions noted are these: reference: library average.
As for ATGATCACGTGCGGGT, the “relative binding free energy” value is -0.07 kcal/mol. To TTTAACACGTGAGTAA belongs 0.21 kcal/mol; to ATAGGCACGTGATAAG, -0.06 kcal/mol; to ATAGGCACGTGTCGAT, -0.14 kcal/mol. For GTTCGCACGTGAAGTG, the “relative binding free energy” value was determined as 0.26 kcal/mol. Under TGTGACACGTGATAGC stands 0.18 kcal/mol; under AGGGTCACGTGTCTTG, 0.04 kcal/mol; under GTGGGCACGTGACTTA, 0.06 kcal/mol. Under TTAGTCACGTGGTCTA stands 0.05 kcal/mol; under CTTGTCACGTGTAAAG, 0.08 kcal/mol; under TTCTGCACGTGTGTTC, 0.03 kcal/mol.

As for TGGAACACGTGAGGTG, the “relative binding free energy” value is 0.24 kcal/mol. Under CTAATCACGTGGGGAG stands 0.05 kcal/mol. To ATGGGCACGTGTAAAA belongs 0 kcal/mol; to TAGGCCACGTGATAGT, 0.07 kcal/mol. For ATAAGCACGTGGAGTT, the “relative binding free energy” value was -0.09 kcal/mol. To GAGTTCACGTGTGCAT belongs 0.24 kcal/mol; to TAGGTCACGTGTACTT, 0.2 kcal/mol; to AGGTACACGTGAGGCT, 0.25 kcal/mol. For the sequence GTCAGCACGTGGATGG, the “relative binding free energy” value is 0 kcal/mol. Under CATGTCACGTGATCTG stands 0.19 kcal/mol; under ATGTGCACGTGGTAAA, 0 kcal/mol; under TTCTGCACGTGTGAGA, 0.12 kcal/mol. To AGGGACACGTGGGATC belongs -0.03 kcal/mol; to AGTTACACGTGAGTTA, 0.2 kcal/mol. Under TAATTCACGTGATTTA stands 0.25 kcal/mol; under AGAGCCACGTGTGGTG, 0.01 kcal/mol.

For TGAATCACGTGTACGG, the “relative binding free energy” value was 0.36 kcal/mol. Take GAGTGCACGTGGTTTA: the “relative binding free energy” value is -0.12 kcal/mol. In the case of GGTGCCACGTGCGAGG, the “relative binding free energy” value is -0.08 kcal/mol. To TTTAGCACGTGTTCGG belongs -0.11 kcal/mol; to GTGCTCACGTGTAGGA, 0.13 kcal/mol. Consider ATTATCACGTGATGGA, for which the “relative binding free energy” value was determined as 0.38 kcal/mol. On to TATGACACGTGATGGT, for which the “relative binding free energy” value came to 0.03 kcal/mol. Turning to AGGGACACGTGATAGT, the “relative binding free energy” value was found to be 0 kcal/mol. With AGCGTCACGTGGCGGT, the “relative binding free energy” value is -0.06 kcal/mol. To GGGCACACGTGGTTAT belongs 0.08 kcal/mol; to TTATGCACGTGAGTTC, 0.15 kcal/mol. AGTGTCACGTGGGTTT: the “relative binding free energy” value is -0.02 kcal/mol. To GCGGTCACGTGGTGGG belongs 0.13 kcal/mol; to CGCGACACGTGGGAGG, -0.08 kcal/mol. Turning to AAGTGCACGTGTGGGA, the “relative binding free energy” value is 0.12 kcal/mol. For the sequence CTCATCACGTGTGTTG, the “relative binding free energy” value worked out at 0.11 kcal/mol. Regarding GTTGACACGTGGGCTA, the “relative binding free energy” value is -0.11 kcal/mol.

In the case of GTGTGCACGTGCGGCA, the “relative binding free energy” value is -0.08 kcal/mol. To TGGGCCACGTGGCGTT belongs -0.21 kcal/mol; to TGTCACACGTGGGAAT, 0.08 kcal/mol; to TCTAGCACGTGTTGAG, -0.15 kcal/mol. As to TTTGGCACGTGTTGGT, the “relative binding free energy” value came to 0.07 kcal/mol. Under AGGGTCACGTGAGATG stands 0.28 kcal/mol; under GATTTCACGTGGGCTG, 0.31 kcal/mol; under TTAAACACGTGGCAGT, 0.06 kcal/mol. As for AACGGCACGTGGATGG, the “relative binding free energy” value was -0.08 kcal/mol.

For CTTAGCACGTGTTGGG, the “relative binding free energy” value is 0.02 kcal/mol. Take TGCGGCACGTGGTAGC: the “relative binding free energy” value was -0.25 kcal/mol. Under GTTTTCACGTGTAAGG stands 0.4 kcal/mol; under ATGGGCACGTGGGTCC, -0.26 kcal/mol; under ATAGTCACGTGTGGAG, 0.09 kcal/mol. Under ATTGTCACGTGTGCTG stands 0.06 kcal/mol; under GGGTCCACGTGGGTTG, -0.06 kcal/mol. As for TTAAGCACGTGATATG, the “relative binding free energy” value was determined as 0.03 kcal/mol. Under GCACGCACGTGGGGGT stands -0.17 kcal/mol; under GTCGACACGTGTTATG, 0.08 kcal/mol; under TAAAACACGTGAGTGT, 0.23 kcal/mol. To ATGGTCACGTGCGCTG belongs -0.01 kcal/mol; to ATTATCACGTGGGAAA, 0.21 kcal/mol. Under TTGTACACGTGATCTT stands 0.14 kcal/mol; under TGGAACACGTGGGACT, -0.01 kcal/mol; under GTGGGCACGTGTCAGT, -0.09 kcal/mol.

As to ATAGCCACGTGGGTTT, the “relative binding free energy” value was -0.18 kcal/mol.

For TTGGGCACGTGTTTAA, the “relative binding free energy” value is 0.03 kcal/mol. Under AGGGACACGTGTGGCG stands 0.01 kcal/mol; under GCGCACACGTGTGGTG, 0.18 kcal/mol; under GTTCTCACGTGTGTTT, 0.41 kcal/mol. Under TCTGTCACGTGTGGTT stands 0.2 kcal/mol. To GGGTTCACGTGGCCAG belongs 0.16 kcal/mol. Consider CTTGTCACGTGGTTTT, for which the “relative binding free energy” value turned out to be 0.04 kcal/mol.

Consider ACGGTCACGTGTGAGA, for which the “relative binding free energy” value turned out to be 0.27 kcal/mol. To TGAGACACGTGGGATA belongs -0.07 kcal/mol; to TGGTTCACGTGCAGGG, 0.33 kcal/mol; to TTTTACACGTGATAGC, 0.22 kcal/mol.

With GTGTCCACGTGTCTGT, the “relative binding free energy” value is 0.01 kcal/mol. To GTTTGCACGTGTCAAG belongs 0.11 kcal/mol. TGCTACACGTGTGGAT: the “relative binding free energy” value amounted to 0.15 kcal/mol. As for TATTACACGTGTGAAG, the “relative binding free energy” value amounted to 0.13 kcal/mol.

ATTGCCACGTGTATTG: the “relative binding free energy” value is -0.07 kcal/mol. For the sequence ATGATCACGTGTAAAT, the “relative binding free energy” value stood at 0.24 kcal/mol.

As to TAGTACACGTGGGGAT, the “relative binding free energy” value is -0.02 kcal/mol. Regarding AACGTCACGTGCGTGG, the “relative binding free energy” value worked out at 0.04 kcal/mol.

Regarding CTTTTCACGTGAGTAT, the “relative binding free energy” value is 0.47 kcal/mol. As to GGGTTCACGTGTAAGA, the “relative binding free energy” value amounted to 0.39 kcal/mol. To GTGGGCACGTGGTTAC belongs -0.01 kcal/mol; to AAGGCCACGTGGTGAT, 0.07 kcal/mol. Under ATTGGCACGTGCGCTT stands -0.21 kcal/mol. On to TAAGGCACGTGAGAGG, for which the “relative binding free energy” value turned out to be 0.06 kcal/mol. To TGCTGCACGTGTTAGT belongs -0.12 kcal/mol.

CTAGGCACGTGAGTAA: the “relative binding free energy” value stood at 0.2 kcal/mol. Consider AGGTACACGTGAATAG, for which the “relative binding free energy” value was found to be 0.31 kcal/mol. To TTATGCACGTGCATAA belongs -0.02 kcal/mol.

For GTGGTCACGTGCGTAA, the “relative binding free energy” value was -0.02 kcal/mol. Under TATGACACGTGCAGTT stands 0.03 kcal/mol; under CGTGTCACGTGTAACG, 0.27 kcal/mol; under GGTACCACGTGTTGAT, -0.08 kcal/mol. Under ATAGGCACGTGAGTTG stands 0.09 kcal/mol; under ATTTGCACGTGGAATA, -0.05 kcal/mol.

Regarding TGGGTCACGTGATTAT, the “relative binding free energy” value came to 0.28 kcal/mol. With TTCGTCACGTGGCAGG, the “relative binding free energy” value is -0.08 kcal/mol. Under TGGTCCACGTGTAGAT stands 0.35 kcal/mol; under CGTTACACGTGTTGGG, 0.1 kcal/mol; under AATGTCACGTGATTTA, 0.24 kcal/mol. As for TAACGCACGTGTTGTT, the “relative binding free energy” value is -0.18 kcal/mol. Under CGTTGCACGTGATGTG stands 0.05 kcal/mol; under TCGTACACGTGTGGCG, 0.12 kcal/mol. With TTTGGCACGTGATGAG, the “relative binding free energy” value stood at 0 kcal/mol. Under ATGTCCACGTGTGTGT stands 0.06 kcal/mol.
